# PMC3950672
# Protein sequences, listed by entry. Tags and fused reporters are not part of them.
# UniProt A5YKK6: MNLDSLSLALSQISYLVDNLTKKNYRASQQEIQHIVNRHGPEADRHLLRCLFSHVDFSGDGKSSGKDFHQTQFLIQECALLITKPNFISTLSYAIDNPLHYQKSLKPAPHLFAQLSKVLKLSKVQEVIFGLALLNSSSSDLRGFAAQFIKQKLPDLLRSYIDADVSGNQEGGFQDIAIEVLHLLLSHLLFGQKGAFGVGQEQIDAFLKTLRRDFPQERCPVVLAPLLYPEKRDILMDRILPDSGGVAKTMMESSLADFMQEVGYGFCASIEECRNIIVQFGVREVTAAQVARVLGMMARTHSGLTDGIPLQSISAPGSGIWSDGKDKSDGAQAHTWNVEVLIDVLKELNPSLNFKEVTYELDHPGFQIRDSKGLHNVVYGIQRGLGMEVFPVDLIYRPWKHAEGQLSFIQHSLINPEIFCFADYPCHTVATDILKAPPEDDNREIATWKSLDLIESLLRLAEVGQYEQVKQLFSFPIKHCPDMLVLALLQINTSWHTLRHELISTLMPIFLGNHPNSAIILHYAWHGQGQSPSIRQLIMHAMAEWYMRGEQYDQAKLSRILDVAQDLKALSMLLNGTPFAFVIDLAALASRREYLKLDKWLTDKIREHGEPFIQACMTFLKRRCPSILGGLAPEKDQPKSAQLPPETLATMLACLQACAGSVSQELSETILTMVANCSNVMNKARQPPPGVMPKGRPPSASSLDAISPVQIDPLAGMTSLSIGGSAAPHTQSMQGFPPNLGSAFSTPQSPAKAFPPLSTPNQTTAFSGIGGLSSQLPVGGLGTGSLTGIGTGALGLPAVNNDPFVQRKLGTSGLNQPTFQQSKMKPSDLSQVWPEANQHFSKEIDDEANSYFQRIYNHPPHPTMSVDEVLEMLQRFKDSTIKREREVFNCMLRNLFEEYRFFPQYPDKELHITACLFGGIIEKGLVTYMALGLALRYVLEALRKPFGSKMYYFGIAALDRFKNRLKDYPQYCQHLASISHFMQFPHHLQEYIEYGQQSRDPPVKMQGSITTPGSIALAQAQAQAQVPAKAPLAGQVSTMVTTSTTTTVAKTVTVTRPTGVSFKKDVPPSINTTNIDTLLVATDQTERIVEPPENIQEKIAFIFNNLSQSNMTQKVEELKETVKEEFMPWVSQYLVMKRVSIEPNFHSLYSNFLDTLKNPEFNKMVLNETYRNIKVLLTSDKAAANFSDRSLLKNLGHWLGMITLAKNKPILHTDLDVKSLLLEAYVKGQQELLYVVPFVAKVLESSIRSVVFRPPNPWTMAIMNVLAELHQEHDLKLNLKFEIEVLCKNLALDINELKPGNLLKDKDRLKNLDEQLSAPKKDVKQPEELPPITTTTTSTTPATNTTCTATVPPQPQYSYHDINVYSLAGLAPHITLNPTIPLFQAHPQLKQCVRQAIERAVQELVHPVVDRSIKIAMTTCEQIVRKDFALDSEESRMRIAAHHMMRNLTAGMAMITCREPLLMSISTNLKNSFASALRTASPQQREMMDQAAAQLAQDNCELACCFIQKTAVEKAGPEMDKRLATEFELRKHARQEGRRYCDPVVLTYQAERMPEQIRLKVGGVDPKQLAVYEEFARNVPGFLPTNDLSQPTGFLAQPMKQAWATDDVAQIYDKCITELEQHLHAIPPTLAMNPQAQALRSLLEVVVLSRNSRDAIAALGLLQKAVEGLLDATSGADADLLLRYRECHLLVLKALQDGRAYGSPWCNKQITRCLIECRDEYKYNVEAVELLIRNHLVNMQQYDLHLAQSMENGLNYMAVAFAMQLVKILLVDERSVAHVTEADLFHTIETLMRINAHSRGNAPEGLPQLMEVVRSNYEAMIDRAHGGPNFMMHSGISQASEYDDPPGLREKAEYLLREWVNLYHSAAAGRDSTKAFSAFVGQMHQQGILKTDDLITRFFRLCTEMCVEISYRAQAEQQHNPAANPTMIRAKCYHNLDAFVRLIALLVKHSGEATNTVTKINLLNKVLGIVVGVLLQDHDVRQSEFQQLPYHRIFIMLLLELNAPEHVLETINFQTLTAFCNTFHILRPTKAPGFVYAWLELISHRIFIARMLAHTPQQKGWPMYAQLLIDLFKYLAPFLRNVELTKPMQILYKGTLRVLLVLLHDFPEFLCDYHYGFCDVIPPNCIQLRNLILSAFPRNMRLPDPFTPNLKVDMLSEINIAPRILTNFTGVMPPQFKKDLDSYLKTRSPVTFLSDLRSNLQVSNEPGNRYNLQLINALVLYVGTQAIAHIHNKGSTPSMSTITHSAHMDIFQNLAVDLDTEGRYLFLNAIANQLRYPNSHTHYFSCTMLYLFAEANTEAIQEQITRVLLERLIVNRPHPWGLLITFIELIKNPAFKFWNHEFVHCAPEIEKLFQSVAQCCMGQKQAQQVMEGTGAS
# UniProt Q9UIV1: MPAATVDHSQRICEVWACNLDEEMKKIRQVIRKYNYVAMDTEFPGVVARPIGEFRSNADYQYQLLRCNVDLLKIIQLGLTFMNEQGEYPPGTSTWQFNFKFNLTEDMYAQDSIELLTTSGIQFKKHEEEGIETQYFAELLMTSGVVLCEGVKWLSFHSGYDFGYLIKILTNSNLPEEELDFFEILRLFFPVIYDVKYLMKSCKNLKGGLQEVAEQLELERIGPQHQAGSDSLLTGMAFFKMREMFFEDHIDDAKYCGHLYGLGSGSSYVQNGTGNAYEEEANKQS
# UniProt P06730: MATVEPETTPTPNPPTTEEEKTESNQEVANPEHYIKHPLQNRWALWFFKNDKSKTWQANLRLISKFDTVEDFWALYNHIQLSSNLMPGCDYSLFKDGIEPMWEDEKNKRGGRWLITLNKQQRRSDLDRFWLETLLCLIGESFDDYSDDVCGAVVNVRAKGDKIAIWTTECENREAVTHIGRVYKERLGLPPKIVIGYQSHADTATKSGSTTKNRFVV
# Positions count from the first letter of the chain named. Results are given in words; binding and its absence hold for the method and conditions named. For some assays here: Binding seen in cells or lysates may run through a third protein. Some binding calls cover weakened binding; strength is not graded here. Tags and fused reporters may be left off the sequences shown.
# How the values were obtained:
# [1] = biological target: T1, GFP-4E-T (human 4E-Transporter, wild type, full length) (human) (UniProt Q9NRA8); assay: co-IP; GFP-Trap magnetic beads with lysates of transfected HEK293 cells (1000 µg in 1 ml NET buffer: 50 mM Tris-HCl pH 7.5, 150 mM NaCl, 0.5% NP-40, 1 mM EDTA), 1.25 h at 4°C; western blotting of input and bound proteins
# T1 sequence: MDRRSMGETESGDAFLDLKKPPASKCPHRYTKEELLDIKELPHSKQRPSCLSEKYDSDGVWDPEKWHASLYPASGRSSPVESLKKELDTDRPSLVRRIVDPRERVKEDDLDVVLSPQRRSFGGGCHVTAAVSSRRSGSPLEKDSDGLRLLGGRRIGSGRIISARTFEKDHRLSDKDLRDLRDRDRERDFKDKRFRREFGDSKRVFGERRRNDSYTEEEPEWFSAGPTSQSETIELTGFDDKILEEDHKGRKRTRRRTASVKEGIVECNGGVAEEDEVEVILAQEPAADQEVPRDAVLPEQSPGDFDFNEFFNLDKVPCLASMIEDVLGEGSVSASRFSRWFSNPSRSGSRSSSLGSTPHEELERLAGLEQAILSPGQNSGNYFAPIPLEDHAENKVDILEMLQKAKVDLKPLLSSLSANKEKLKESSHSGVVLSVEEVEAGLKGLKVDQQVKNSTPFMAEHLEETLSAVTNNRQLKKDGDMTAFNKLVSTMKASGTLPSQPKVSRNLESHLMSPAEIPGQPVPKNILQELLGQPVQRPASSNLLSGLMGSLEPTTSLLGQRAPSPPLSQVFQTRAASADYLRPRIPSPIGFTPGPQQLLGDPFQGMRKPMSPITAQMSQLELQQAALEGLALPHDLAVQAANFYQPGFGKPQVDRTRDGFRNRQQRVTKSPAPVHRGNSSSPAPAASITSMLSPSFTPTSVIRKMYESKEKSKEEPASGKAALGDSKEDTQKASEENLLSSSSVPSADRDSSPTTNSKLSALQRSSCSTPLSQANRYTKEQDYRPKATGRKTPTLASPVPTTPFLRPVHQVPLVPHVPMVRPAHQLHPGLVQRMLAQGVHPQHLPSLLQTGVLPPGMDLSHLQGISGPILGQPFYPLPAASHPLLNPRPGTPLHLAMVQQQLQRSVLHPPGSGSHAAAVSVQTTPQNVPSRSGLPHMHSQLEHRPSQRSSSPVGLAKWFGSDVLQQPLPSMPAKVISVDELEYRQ
# [2] = biological target: T2, human 4E-T mutated in the three key residues of YXXXXLL, yeast two-hybrid fusion (human) (UniProt Q9NRA8); assay: two-hybrid; S. cerevisiae AH109, pGBKT7 and pGADT7 AD fusions; growth on -Trp-Leu-Ade-His dropout plates (high stringency), 30°C
# T2 sequence: T1 sequence with Y30A, L35A, L36A
# [3] = biological target: T3, human 4E-T, yeast two-hybrid fusion (human) (UniProt Q9NRA8); assay: as above
# T3 sequence: T1 sequence
# [4] = biological target: T4, GFP-4E-T YLL → AAA (4Emut) (human) (UniProt Q9NRA8); assay: co-IP; GFP-Trap magnetic beads with lysates of transfected HEK293 cells (1000 µg in 1 ml NET buffer: 50 mM Tris-HCl pH 7.5, 150 mM NaCl, 0.5% NP-40, 1 mM EDTA), 1.25 h at 4°C; western blotting of input and bound proteins
# T4 sequence: T1 sequence with Y30A, L35A, L36A
# GFP-4E-T-Y30A (human) = biological target: T5, GFP-4E-T-Y30A (human) (UniProt Q9NRA8); assay: as above
# T5 sequence: T1 sequence with Y30A
# GFP-4E-T1-180 (human) = biological target: T6, GFP-4E-T1-180 (human) (UniProt Q9NRA8); assay: as above
# T6 sequence: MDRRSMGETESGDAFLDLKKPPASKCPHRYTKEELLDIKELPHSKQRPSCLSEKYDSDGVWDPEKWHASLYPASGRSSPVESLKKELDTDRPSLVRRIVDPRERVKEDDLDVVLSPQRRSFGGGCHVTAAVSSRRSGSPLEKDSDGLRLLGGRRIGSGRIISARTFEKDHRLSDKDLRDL
substance,measurement,setting,value
FLAG-CNOT1 (from UniProt A5YKK6 1-2376),binding,[1],binds weakly
FLAG-CNOT7 (from UniProt Q9UIV1 1-285),binding,[1],binds weakly
"human eIF4E, yeast two-hybrid fusion (from UniProt P06730 1-217)",binding,[2],no binding
same,binding,[3],binds
"eIF4E (endogenous, HEK293) (from UniProt P06730 1-217)",binding,[1],binds
same,binding,[4],no binding
same,binding,GFP-4E-T-Y30A (human),no binding
same,binding,GFP-4E-T1-180 (human),binds
